{"source": "PubChem BioAssay AID1030", "about": "(National Center for Advancing Translational Sciences (NCATS), 2008)", "note": "About 16,000 (7.3%) of roughly 220,000 compounds were called active. This list was built around the results that the source calls inconclusive (neither active nor inactive); the mix of calls is not that of the screen. The call rests on the fitted dose curve; in most records, active means well fitted inhibition curve with a large enough effect (not every such curve was filed as active); inconclusive means small, poorly fitted or top-dose-only effect, or another doubt; inactive means no such curve, though single readings can be large or run the other way. No potency is given beside an inconclusive call; the fits are too rough. Potency means the concentration at half of the fitted maximal effect; tags describe the fitted curve by direction and shape.", "data": [{"target": "Aldehyde dehydrogenase 1A1 (Homo sapiens) (UniProt P00352)", "sequence (P00352 whole entry, looked up)": "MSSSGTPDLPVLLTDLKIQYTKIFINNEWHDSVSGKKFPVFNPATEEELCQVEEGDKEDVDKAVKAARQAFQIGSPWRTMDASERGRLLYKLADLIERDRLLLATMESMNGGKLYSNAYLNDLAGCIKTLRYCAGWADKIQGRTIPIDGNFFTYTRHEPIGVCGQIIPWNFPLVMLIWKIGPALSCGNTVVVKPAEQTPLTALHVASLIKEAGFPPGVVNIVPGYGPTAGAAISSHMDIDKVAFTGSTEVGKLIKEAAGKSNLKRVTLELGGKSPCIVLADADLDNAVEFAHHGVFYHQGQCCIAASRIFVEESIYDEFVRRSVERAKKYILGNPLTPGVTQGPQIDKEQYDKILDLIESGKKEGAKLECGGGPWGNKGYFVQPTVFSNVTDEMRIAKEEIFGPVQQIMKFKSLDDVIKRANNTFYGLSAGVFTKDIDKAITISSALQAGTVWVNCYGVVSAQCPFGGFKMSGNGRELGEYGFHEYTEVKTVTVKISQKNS", "assay": "qHTS Assay for Inhibitors of Aldehyde Dehydrogenase 1 (ALDH1A1);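 on activity, negative = inhibition: plate controls were no enzyme wells and a reference inhibitor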", "settings": "Purified ALDH1A1, NADH fluorescence, propionaldehyde substrate; series mostly up to 75.3 µM", "values": [{"smiles": "COC(=O)c1ccc(OC)c(CSc2nnc(COc3ccc(OC)cc3)o2)c1", "Potency": "inconclusive [inhibitor, partial curve, poor fit]"}, {"smiles": "COC(=O)c1cc2n3ccccc3c(C)c(-c3ccccc3)c-2c1C(=O)OC", "Potency": "inconclusive [inhibitor, single point]"}, {"smiles": "COc1ccc(N2CCN(c3ccc(NC(=O)C4CCCCC4)cc3C#N)CC2)cc1", "Potency": "inconclusive [inhibitor, partial curve]"}, {"smiles": "COc1ccc2cc(C(=O)N3CCCCCC3)sc(=O)c2c1OC", "Potency": "active: 8.91 µM"}, {"smiles": "CSc1nnc(CCCCCCCCc2nnc(SC)o2)o1", "Potency": "inactive"}, {"smiles": "CC(=O)[C@]1(O)Cc2c(O)c3c(c(O)c2[C@@H](O[C@H]2C[C@H](N)[C@H](O)[C@H](C)O2)C1)C(=O)c1c(O)cccc1C3=O", "Potency": "inactive"}, {"smiles": "O=C(N/N=C/c1cccc(Oc2ccccc2)c1)c1ccccc1Br", "Potency": "inactive"}, {"smiles": "COc1ccc2c(COC(=O)CNC(=O)C34CC5CC(CC(C5)C3)C4)cc(=O)oc2c1", "Potency": "inconclusive [inhibitor, partial curve]"}, {"smiles": "O=C(Nc1ccc[n+](CC(=O)c2cccc3ccccc23)c1)c1ccccc1", "Potency": "inconclusive [inhibitor, single point]"}, {"smiles": "O=C(Nc1ccccc1-c1ccccc1)c1cccc([N+](=O)[O-])c1", "Potency": "active: 7.94 µM"}, {"smiles": "O=C(NN=C1CCCCCC1)c1c[nH]c2ccccc12", "Potency": "inconclusive [inhibitor, single point]"}, {"smiles": "COc1ccc(CN2CCC(C(=O)N(C)CCc3ccc(OC)c(OC)c3)CC2)c(OC)c1", "Potency": "inactive"}, {"smiles": "Cc1c(C)n(CC(O)CN2CCCCC2)c2ccccc12", "note": "(centres undefined)", "Potency": "inconclusive [inhibitor, single point]"}, {"smiles": "COC(=O)c1ccc(C)c(NS(=O)(=O)c2ccc(OC)c(OC)c2)c1", "Potency": "inconclusive [inhibitor, partial curve]"}, {"smiles": "COc1ccc(-c2[nH]ncc2CN2CCCO2)c(F)c1", "Potency": "inconclusive [inhibitor, single point]"}, {"smiles": "O=C(COC(=O)CC1CCCC1)Nc1cc2c(cc1Cl)C(=O)c1ccccc1C2=O", "Potency": "inconclusive [inhibitor, single point]"}, {"smiles": "Cc1ccc2nc(N3CC(=O)Nc4ccccc43)nc(-c3ccccc3)c2c1", "Potency": "inactive"}, {"smiles": "CC/C=C\\C/C=C\\C/C=C\\C/C=C\\C/C=C\\CCCC(=O)O", "Potency": "inactive"}, {"smiles": "CC(OC(=O)c1cc2c(ccc3ccccc32)oc1=O)c1nc2ccccc2s1", "note": "(centres undefined)", "Potency": "inconclusive [inhibitor, partial curve]"}, {"smiles": "CCOc1ccc2nc(NCCNC(=O)C(C)C)c(C)cc2c1", "Potency": "inconclusive [inhibitor, partial curve]"}, {"smiles": "CC(=O)C1CCN(Cc2ccccc2)CC1", "Potency": "inactive"}, {"smiles": "Cc1nnc(SC(C(=O)Nc2cc(Cl)cc(Cl)c2)c2ccccc2)[nH]c1=O", "note": "(centres undefined)", "Potency": "inactive"}, {"smiles": "CCC1(NC(C)=O)CC2CC1CC2NC(C)=O", "note": "(centres undefined)", "Potency": "inconclusive [inhibitor, single point]"}, {"smiles": "CC(O)C(C(=O)OCc1ccc([N+](=O)[O-])cc1)N1C(=O)c2ccccc2C1=O", "note": "(centres undefined)", "Potency": "inactive"}, {"smiles": "CCN(CC)C(=O)CC(c1ccc(F)cc1)c1ccc(OC(C)C)cc1", "note": "(centres undefined)", "Potency": "inactive"}, {"smiles": "CCOc1ccc2nc(SCC(=O)Nc3ccc4c(c3)OCCO4)[nH]c2c1", "Potency": "inconclusive [inhibitor, single point]"}, {"smiles": "COc1ccccc1NC(=O)CCC(=O)OCc1ccc(Cl)cc1", "Potency": "inactive"}, {"smiles": "COc1cc(-c2csc(N3CCOCC3)n2)cc(OC)c1OC", "Potency": "inconclusive [inhibitor, partial curve]"}, {"smiles": "C=CCN(C(=O)CNC(=O)c1ccco1)C(C(=O)NC1CCCCC1)c1ccccc1", "note": "(centres undefined)", "Potency": "inconclusive [inhibitor, partial curve]"}, {"smiles": "CCc1cc2c(=O)c(-c3ccc4c(c3)OCCO4)c(C)oc2cc1OS(C)(=O)=O", "Potency": "active: 4.47 µM"}, {"smiles": "O=C(COc1ccc(Br)cc1CNCCc1ccccc1)NCc1ccccc1", "Potency": "inconclusive [inhibitor, single point]"}, {"smiles": "Cn1cccc1C(=O)N1CCC[C@@]2(CCN(Cc3ccccc3)C2)C1", "Potency": "inactive"}, {"smiles": "Cc1ccccc1-c1nc(CS(=O)(=O)CC(=O)N2CCc3ccccc32)c(C)o1", "Potency": "inactive"}, {"smiles": "Oc1ccc(/C=N/Nc2ccccc2)cc1", "Potency": "active: 20 µM"}, {"smiles": "CCOC(=O)c1cccc(NC(=O)C2CCCO2)c1", "note": "(centres undefined)", "Potency": "inactive"}, {"smiles": "O=C(NCc1ccccc1)c1cccc(COc2ccc(Cl)cc2)c1", "Potency": "inconclusive [inhibitor, single point]"}, {"smiles": "CC1CCc2cc(F)ccc2N1C(=O)CSc1nnc2c3ccccc3n(C)c2n1", "note": "(centres undefined)", "Potency": "inactive"}, {"smiles": "Cc1ccc2[nH]c(=O)c(CN(Cc3cccs3)Cc3nnnn3CC3CCCO3)cc2c1", "note": "(centres undefined)", "Potency": "active: 20 µM"}, {"smiles": "Cc1ccc(C)c(OCC(O)CN2CCN(CCN3C(=O)c4cccc5cccc(c45)C3=O)CC2)c1", "note": "(centres undefined)", "Potency": "inconclusive [inhibitor, single point]"}, {"smiles": "O=C(Nc1ccc2c(c1)OCCO2)NC1(C(F)(F)F)Oc2ccccc2O1", "Potency": "inconclusive [inhibitor, single point]"}, {"smiles": "Cc1c2ccccc2cc[n+]1CCCS(=O)(=O)[O-]", "Potency": "inconclusive [inhibitor, single point]"}, {"smiles": "NC(=O)c1ccccc1NC(=S)NC(=O)c1ccc(Br)o1", "Potency": "inconclusive [inhibitor, partial curve]"}, {"smiles": "Cc1cccc(NC(=O)CSc2nnc([C@@H](N)Cc3ccccc3)o2)c1C", "Potency": "inconclusive [inhibitor, single point]"}, {"smiles": "Cc1nc2sc(C(=O)c3ccccc3)c(N)c2c2c1CCCC2", "Potency": "active: 3.98 µM"}, {"smiles": "CN1CCN(CCCNC(=O)c2ccc3c(c2)N(Cc2ccccc2)CCS3)CC1", "Potency": "inconclusive [inhibitor, partial curve]"}, {"smiles": "O=C(c1ccco1)N1CCN(c2ncnc3c2cnn3-c2ccccc2)CC1", "Potency": "inconclusive [inhibitor, single point]"}, {"smiles": "O=C(NCCc1cccc(F)c1)/C(=C/c1cccnc1)NC(=O)c1ccccc1", "Potency": "inactive"}, {"smiles": "Cc1cc(C=NCCCO)c(C)n1-c1cc(Cl)ccc1Cl", "Potency": "active: 3.55 µM"}, {"smiles": "CC(=O)OC(C(=O)c1ccccc1)c1ccccc1", "note": "(centres undefined)", "Potency": "active: 22.4 µM"}, {"smiles": "CCCNC(=O)OC[C@@H]1O[C@H](CCO/N=C(\\C)CCN2CCc3nc(CC)c(CC)cc3C2)C=C[C@@H]1Oc1ccc(OC)cc1", "activity, negative = inhibition": "inactive: -7.42% [at 13.5 µM]"}, {"smiles": "O=C(CC(Nc1cccc(Cl)c1Cl)C(=O)O)c1ccccc1", "note": "(centres undefined)", "Potency": "active: 0.355 µM"}, {"smiles": "COCCn1c(=O)c(-c2cc(F)cc(F)c2)nc2cnc(OCc3ccccc3)nc21", "Potency": "inconclusive [inhibitor, single point]"}, {"smiles": "COc1ccc(CNC(=O)c2csnn2)cc1", "Potency": "active: 25.1 µM"}, {"smiles": "COc1ccc(O[C@H]2C=C[C@@H](c3ccccc3)O[C@H]2COC(=O)CC/C(C)=N\\O[C@@H](C)c2cc(-c3c(C)cc(C)cc3C)no2)cc1", "activity, negative = inhibition": "inactive: 9.34% [at 13.5 µM]"}, {"smiles": "O=C(COC(=O)c1cc(-c2cccs2)nn1-c1ccccc1)Nc1ccc(F)c([N+](=O)[O-])c1", "Potency": "inconclusive [inhibitor, partial curve]"}, {"smiles": "COC1=NS(=O)(=O)c2ccccc21", "Potency": "inactive"}, {"smiles": "O=[N+]([O-])c1cccc(/C=N\\NC2=CS(=O)(=O)C=C2)c1", "activity, negative = inhibition": "inactive: -2.11% [at 13.5 µM]"}, {"smiles": "COc1ccc(C(=O)N2CCC3(CCN(C(=O)Nc4cccc(C#N)c4)CC3)CC2)cc1", "Potency": "inactive"}, {"smiles": "COc1cccc(C2=NOC(C(=O)Nc3cc(OC)c(OC)c(OC)c3)C2)c1", "note": "(centres undefined)", "Potency": "inconclusive [inhibitor, single point]"}, {"smiles": "O=C(CSc1cccs1)Nc1ccc2ccccc2c1", "Potency": "inconclusive [inhibitor, single point]"}, {"smiles": "COC(=O)C1=C(C)NC(=O)/C1=C\\N(C)C", "Potency": "inconclusive [inhibitor, single point]"}, {"smiles": "CCOC(=O)N1CCN(Cc2cc(=O)oc3cc4c(cc23)CCC4)CC1", "Potency": "inconclusive [inhibitor, single point]"}, {"smiles": "O=C(COC(=O)c1cc[n+]([O-])cc1)NCC12CC3CC(CC(C3)C1)C2", "Potency": "inconclusive [inhibitor, single point]"}, {"smiles": "CCOC(=O)/C(=C\\c1cccc(O)c1)c1nc2sc(C)c(C)c2c(=O)[nH]1", "Potency": "active: 7.94 µM"}, {"smiles": "CCOC(=O)c1ccc(Cl)c(S(=O)(=O)N2CCCC2)c1", "Potency": "inconclusive [inhibitor, partial curve]"}, {"smiles": "Cc1ccc(C(CC(=O)c2ccc(Cl)cc2)C(=O)O)cc1", "note": "(centres undefined)", "Potency": "inactive"}, {"smiles": "CCOC(=O)C1CCCN(C(=O)CN(c2ccc(OC)cc2)S(=O)(=O)c2c(C)noc2C)C1", "note": "(centres undefined)", "Potency": "inactive"}, {"smiles": "COCCCC/C(=N\\OCCN)c1ccc(C(F)(F)F)cc1", "Potency": "inactive"}, {"smiles": "c1ccc2c(N3CCCCC3)nc(N3CCOCC3)nc2c1", "Potency": "inconclusive [inhibitor, single point]"}, {"smiles": "COC(=O)C[C@@H]1O[C@H]1[C@H](C)[C@@H](OC)C(C)C", "activity, negative = inhibition": "inactive: -14.2% [at 13.5 µM]"}, {"smiles": "CCOc1cccc(C(=O)N2CCCCC2c2cccnc2)c1", "note": "(centres undefined)", "Potency": "inconclusive [inhibitor, single point]"}, {"smiles": "Cc1nn(CCc2nn[nH]n2)c2nc(-c3ccc(C4CCCCC4)cc3)cc(C(F)(F)F)c12", "Potency": "inconclusive [inhibitor, partial curve]"}, {"smiles": "Cc1ccc(S(=O)(=O)c2c(C)cc(C)nc2N2CCCCC2)cc1", "Potency": "inactive"}, {"smiles": "CCc1cccc(CC)c1NC(=O)CN1CCN(c2ccccc2)CC1", "Potency": "inconclusive [inhibitor, single point]"}]}]}
